Assay results from PubChem BioAssay AID485281 (National Center for Advancing Translational Sciences (NCATS), 2010).
The whole screen tested about 350,000 compounds, of which about 260 (0.074%) were called active. This list was built around the results that the source calls inconclusive (neither active nor inactive); the mix of calls is not that of the screen. Calls come from the whole dose curve; as a rule, active = well fitted inhibition curve with a large enough effect; inconclusive = small, poorly fitted or top-dose-only effect; inactive = no such curve, though single readings can be large or run the other way. Potencies of inconclusive entries are doubtful fits and often do not repeat.

Biological target: Ferritin light chain (Equus caballus) (UniProt P02791)
Assay: qHTS Assay for Identification of Novel General Anesthetics; note: nearly all actives have a fitted effect of over 20% in size
Settings: apoferritin/1-aminoanthracene competitive binding, fluorescence; series mostly up to 77.5 µM
In short: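 10 uM apoferritin + 50% sat. 1-AMA, PBS; cpd 10 min RT; Ex380/Em535 endpoint; normalized to free probe vs complex; 4-param Hill fit; propofol titration as pos. ctrl.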
Potency is the fitted concentration of half-maximal effect; tags give direction and shape of the fitted curve.

Sequence of UniProt P02791 (P02791 whole entry, looked up): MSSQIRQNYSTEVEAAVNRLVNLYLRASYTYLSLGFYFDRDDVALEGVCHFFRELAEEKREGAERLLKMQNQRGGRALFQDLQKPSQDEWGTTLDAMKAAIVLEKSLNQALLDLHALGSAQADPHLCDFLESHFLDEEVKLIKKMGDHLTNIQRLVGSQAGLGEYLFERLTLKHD

SMILES	Potency
CCC(=O)N1CCc2cc(S(=O)(=O)N3CCCCCC3)ccc21	inactive
Fc1ccc(C(c2nnnn2C2CCCC2)N2CCN(Cc3ccccc3)CC2)cc1 (centres undefined)	inconclusive: 44.7 µM [inhibitor, partial curve, poor fit]
NNC(=O)COc1cccc(C(F)(F)F)c1	inconclusive: 20 µM [inhibitor, partial curve]
Cc1cc2c(cc1C)NC(=O)CC(C(F)(F)C(F)(F)C(F)(F)F)=N2	inconclusive: 2.24 µM [inhibitor, full curve, poor fit]
O=[N+]([O-])c1ccc(NCc2ccc3c(c2)OCO3)cc1	inconclusive: 11.2 µM [inhibitor, partial curve]
Cc1cc(NC(=O)CSc2ccccc2)no1	inconclusive: 28.2 µM [inhibitor, partial curve]
O=C1/C(=C/c2ccco2)CCc2ccccc21	inactive
C#CCOc1nc(Nc2cccc([N+](=O)[O-])c2)nc(OCC#C)n1	inconclusive: 31.6 µM [inhibitor, partial curve]
Cc1ccc(/C=N/NC(=O)CNC(=O)c2cccc([N+](=O)[O-])c2C)o1	inconclusive: 8.91 µM [inhibitor, partial curve]
COc1ccccc1CCC(=O)Nc1ccc(C)cc1Cl	inconclusive: 15.8 µM [inhibitor, partial curve]
Cc1ccc(S(=O)(=O)NC2CCCCCCC2)cc1	inconclusive: 28.2 µM [inhibitor, partial curve]
O=C(COc1ccc(Cl)cc1)N/N=C/c1cccc2cccnc12	inconclusive: 35.5 µM [inhibitor, partial curve]
O=S(=O)(Nc1ccccc1)c1ccc(-c2csnn2)cc1	inactive
COc1ccc(CCNC(=O)C2CCC(C(C)(C)C)CC2)cc1OC (centres undefined)	inconclusive: 31.6 µM [inhibitor, single point]
COC(=O)CCN(C(=O)C12CC3CC(CC(C3)C1)C2)c1ccccn1	inactive
Nc1ccccc1SCC(=O)Nc1cccc2ccccc12	inconclusive: 56.2 µM [inhibitor, single point]
CC(C)Oc1cccc(C2NC(=O)c3ccccc3O2)c1 (centres undefined)	inconclusive: 25.1 µM [inhibitor, single point]
COc1cccc(NC(=O)c2ccc3nc(Cc4ccccc4)oc3c2)c1	inactive
CSc1ccccc1-c1nnc(-c2ccc(Cl)cc2Cl)o1	inactive
CCc1ccc(-n2c(SCc3cccc(F)c3)nc3[nH]ncc3c2=O)cc1	inactive
COc1ccccc1CCc1nnc(CCC(=O)NCC[C@@H]2C[C@@H]3C=C[C@H]2C3)o1	inconclusive: 25.1 µM [inhibitor, partial curve]
CCCCc1ccc(NC(=O)C2(C)Cc3ccccc3C(=O)O2)cc1 (centres undefined)	inconclusive: 14.1 µM [inhibitor, partial curve]
N/C(=N\OC(=O)CC1CCCCC1)c1cccnc1	inconclusive: 25.1 µM [inhibitor, partial curve]

SMILES	Potency
COc1ccc(N(C)C(=O)c2cc(S(=O)(=O)N3CCc4ccccc43)cn2C)c(OC)c1	inactive
Cc1ccc(S(=O)(=O)Nc2ccc(N(C)C)cc2)cc1	inconclusive: 39.8 µM [inhibitor, partial curve]
Cc1ccc(/C=N\NC(=O)C2COc3cc4ccccc4cc3O2)o1 (centres undefined)	inconclusive: 7.08 µM [inhibitor, full curve]
Cc1ccc(CN(Cc2ccco2)c2cnc(S(C)(=O)=O)nc2C(=O)Nc2ccccc2Br)o1	inconclusive: 8.91 µM [inhibitor, partial curve]
CCCCCCCC(=O)N/N=C/c1ccco1	inconclusive: 28.2 µM [inhibitor, partial curve]
C=CCc1c(C)nc(SCc2ccccc2)[nH]c1=O	inconclusive: 56.2 µM [inhibitor, single point]
CC(=O)Nc1ccc(N2CCCC(C)C2)c([N+](=O)[O-])c1 (centres undefined)	inconclusive: 25.1 µM [inhibitor, partial curve]
O=C(Nc1ccc(Cl)cc1)c1cc2c(-c3ccccc3)nn(-c3ccccc3)c2s1	inactive
CCc1sc(/C=C(/C#N)C(N)=S)cc1[N+](=O)[O-]	inconclusive: 25.1 µM [inhibitor, partial curve]
NS(=O)(=O)c1ccc(NCc2c(F)cccc2Cl)cc1	inconclusive: 22.4 µM [inhibitor, partial curve]
Cc1cccc(OCCN2C(=O)C(=O)c3cc(C)ccc32)c1	inconclusive: 35.5 µM [inhibitor, partial curve]
C/C(CC(=O)Nc1cccc(Cl)c1)=N\NC(=O)Cc1ccc(Cl)cc1	inconclusive: 22.4 µM [inhibitor, partial curve]
COc1ccccc1C(=O)NC1=NC(c2ccc(Br)cc2)CC(=O)N1 (centres undefined)	inconclusive: 25.1 µM [inhibitor, partial curve]
CC(C)c1ccc(OCc2cccc(C(=O)N/N=C/c3cccnc3)c2)cc1	inconclusive: 35.5 µM [inhibitor, partial curve]
CN(c1ccc(C(=O)Nc2ccc3c(c2)n(C)c(=O)n3C)cc1)S(C)(=O)=O	inactive
CCCc1cc(C(=O)Nc2c(C)nn(Cc3ccc(Cl)c(Cl)c3)c2C)no1	inconclusive: 56.2 µM [inhibitor, single point]
COc1ccccc1/C=C\C(=O)NCC(=O)N/N=C/c1ccc(O)cc1O	inactive
Cc1ccc2nc(N(CCCN(C)C)C(=O)c3cc(-c4cccs4)nc4ccccc34)sc2c1	inconclusive: 15.8 µM [inhibitor, partial curve]
CCCC(C(=O)NC1CCCC1)N(CC1CCCO1)C(=O)CNS(=O)(=O)c1ccc(F)cc1 (centres undefined)	inactive
Cc1cc(C(=O)CSc2nnc(-c3ccccc3F)o2)c(C)n1Cc1cccs1	inconclusive: 25.1 µM [inhibitor, partial curve]
Cc1cccc(-n2c(=O)c3c(c4cc(C)ccc4n3C)n(CC(=O)Nc3ccc(C)cc3C)c2=O)c1	inactive
O=S(=O)(NC1CCCCCC1)c1ccc(Br)s1	inconclusive: 35.5 µM [inhibitor, single point]
Cc1nnc(NC(=O)C(=O)c2cc(C)n(-c3ccc(C)c(C)c3)c2C)s1	inconclusive: 17.8 µM [inhibitor, partial curve]

SMILES	Potency
CC(C)CN(CC(C)C)S(=O)(=O)N1CCC(C(=O)NC2CCCCCCC2)CC1	inactive
Cc1nc2ccc(S(=O)(=O)N(C)CC(=O)N3CCc4ccccc43)cc2s1	inconclusive: 39.8 µM [inhibitor, partial curve]
O=C(c1cnsn1)N1CCCC(Nc2ccc(F)c(F)c2)C1 (centres undefined)	inconclusive: 25.1 µM [inhibitor, partial curve]
CCOC(=O)N1CCN(/[N+]([O-])=N/Oc2ccc([N+](=O)[O-])cc2[N+](=O)[O-])CC1C (centres undefined)	inactive
CCCC1=Nc2cc(C(=O)NCCCOCC)ccc2Sc2ccccc21	inconclusive: 35.5 µM [inhibitor, single point]
CCN(CC)S(=O)(=O)c1cccc(-c2nnc(C(=O)c3ccc(C(F)(F)F)cc3)o2)c1	inconclusive: 25.1 µM [inhibitor, partial curve]
CC1CCCC(NC(=O)COC(=O)CSc2ccc3ccccc3c2)C1C (centres undefined)	inconclusive: 35.5 µM [inhibitor, single point]
Cc1cc(C(=O)COC(=O)C2=NNC(=O)CC2)c(C)n1-c1cccc(C(F)(F)F)c1	inconclusive: 35.5 µM [inhibitor, partial curve]
COc1ccc(Cl)cc1NC(=O)c1sc2nc3c(cc2c1N)CN(C)CC3	inconclusive: 25.1 µM [inhibitor, single point]
Cc1ccc(C)n1-c1ccc(N(C)C)cc1	inconclusive: 31.6 µM [inhibitor, single point]
COC(=O)c1ccccc1NC(=O)c1cccc(NC(=O)C(C)C)c1	inconclusive: 35.5 µM [inhibitor, single point]
Cc1ccc(NC(=O)C(c2ccccc2)N(C)C)cc1Cl (centres undefined)	inconclusive: 31.6 µM [inhibitor, partial curve]
COc1ccc(C(=O)NC(C)c2ccccc2)cc1Br (centres undefined)	inconclusive: 28.2 µM [inhibitor, single point]
S=C(NCc1ccncc1)Nc1ccc(Br)cc1	inactive
COc1ccc(CN(C(=O)c2ccc(CN3CCOCC3)o2)C(C(=O)NCC2CCCO2)c2ccc(F)cc2)cc1 (centres undefined)	inconclusive: 31.6 µM [inhibitor, partial curve]
O=C(NC12CC3CC(CC(C3)C1)C2)c1ccccc1O	inconclusive: 10 µM [inhibitor, partial curve]
Cc1cc(NC(=O)c2ccc(N3C(=O)C4C5C=CC(C5)C4C3=O)cc2)no1 (centres undefined)	inconclusive: 39.8 µM [inhibitor, partial curve]
CCOc1ccc(-n2cc(-c3ccc(OC)c(OC)c3)[nH]c2=S)cc1	inconclusive: 35.5 µM [inhibitor, single point]
Cc1nc2oc3ccc(F)cc3c(=O)c2cc1C(=O)O	inactive
Cc1[nH]c2ccccc2c1/C=N/Nc1ccccc1[N+](=O)[O-]	inconclusive: 10 µM [inhibitor, partial curve]
N#Cc1ccc(NC(=O)COC(=O)CNC(=O)C2CCCCC2)cc1	active: 8.91 µM
O=[N+]([O-])C(/C=C(/Cl)[N+](=O)[O-])=C(N1CCCCC1)N1CCCCC1	inactive
O=C(CO/N=C/c1cccc([N+](=O)[O-])c1)NC1CCCCCC1	inconclusive: 15.8 µM [inhibitor, partial curve]
